From paper PMC4336329 (PLoS ONE, 2015)
The campaign covered roughly 310,000 compounds. About 2,200 (0.71%) showed an effect of 50% or more. The effect is printed as a negative number. This is one part of the list.

target: human ether-à-go-go-related gene (hERG) potassium channel (human, UniProt Q12809); test: primary screen, population patch clamp on CHO cells stably expressing hERG
Sequence (Q12809 whole entry, looked up): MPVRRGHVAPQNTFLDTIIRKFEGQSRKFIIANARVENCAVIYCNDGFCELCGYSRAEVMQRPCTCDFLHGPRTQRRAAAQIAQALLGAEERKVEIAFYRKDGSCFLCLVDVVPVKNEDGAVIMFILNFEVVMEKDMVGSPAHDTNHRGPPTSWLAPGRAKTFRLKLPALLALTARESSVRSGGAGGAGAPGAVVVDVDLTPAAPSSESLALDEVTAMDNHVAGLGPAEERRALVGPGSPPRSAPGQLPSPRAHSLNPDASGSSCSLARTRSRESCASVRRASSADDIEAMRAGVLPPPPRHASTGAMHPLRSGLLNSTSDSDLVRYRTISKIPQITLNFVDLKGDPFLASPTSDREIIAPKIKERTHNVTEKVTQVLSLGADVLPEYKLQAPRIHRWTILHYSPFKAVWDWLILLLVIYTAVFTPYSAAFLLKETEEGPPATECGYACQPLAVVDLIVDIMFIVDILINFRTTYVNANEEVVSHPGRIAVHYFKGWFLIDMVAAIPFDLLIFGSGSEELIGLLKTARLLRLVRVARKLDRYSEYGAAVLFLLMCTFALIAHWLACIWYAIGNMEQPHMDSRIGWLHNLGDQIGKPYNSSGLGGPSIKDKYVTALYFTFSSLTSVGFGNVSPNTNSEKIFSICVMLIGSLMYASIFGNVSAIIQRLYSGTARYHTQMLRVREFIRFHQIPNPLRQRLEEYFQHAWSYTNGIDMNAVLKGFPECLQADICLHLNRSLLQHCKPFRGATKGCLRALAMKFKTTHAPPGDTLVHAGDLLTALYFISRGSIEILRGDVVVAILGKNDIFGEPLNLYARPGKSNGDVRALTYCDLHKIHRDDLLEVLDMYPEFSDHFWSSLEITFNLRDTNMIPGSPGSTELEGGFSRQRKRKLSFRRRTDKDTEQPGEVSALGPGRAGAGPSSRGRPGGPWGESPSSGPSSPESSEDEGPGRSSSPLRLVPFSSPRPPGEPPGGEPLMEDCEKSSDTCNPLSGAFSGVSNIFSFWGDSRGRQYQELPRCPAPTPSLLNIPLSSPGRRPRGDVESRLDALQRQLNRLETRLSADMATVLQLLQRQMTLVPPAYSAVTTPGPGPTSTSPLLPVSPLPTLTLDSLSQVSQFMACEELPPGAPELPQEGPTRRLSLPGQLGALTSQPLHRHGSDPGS

SMILES | hERG current change (%, negative = inhibition) at 1uM [%]
O=C(NNS(=O)(=O)c1ccc(Cl)cc1)c1sccc1-n1cccc1 | 3.83
CCOC(=O)CC(NC(=O)c1cccc2c1C(=O)N(Cc1cccnc1)C2)c1ccc(OC(C)C)cc1 (stereo not shown) | 7.87
CCC(C)n1c(=S)[nH]c2c(sc3ccc([N+](=O)[O-])cc32)c1=O (stereo not shown) | 15.7
Cc1cccn2c(=O)nc(SCC(=O)N3CCN(c4ccccc4)CC3)nc12 | -30.9
CN(NC(N)=O)c1ncc(C(F)(F)F)cc1Cl | 8.95
COc1ccc(NC(=O)C(CCSC)NC(N)=O)cc1Cl (stereo not shown) | -0.296
Cc1cccc(NC(=O)c2nc[nH]c2C(=O)N2CCc3ccccc3C2)c1 | 10.2
CCC(=O)Nc1nnc(SCC(=O)Nc2ccc3c(c2)OCCO3)s1 | 19.8
COC(=O)c1ccc(NC(=O)CSc2nncn2-c2cccnc2)cc1 | -4.44
CSc1nc(-c2ccco2)cc(C(F)(F)F)c1C#N | 12
Cc1ccc(C(=O)NNC(=O)c2ccc(Br)s2)cc1S(=O)(=O)N1CCOCC1 | 2.22
Cc1ccc(C(C(=O)NC2CCCC2)N(CCCO)C(=O)Cn2nnc(-c3ccc(C)o3)n2)cc1 (stereo not shown) | 15.5
COc1ccc(C(NC(=O)/C=C/c2ccco2)c2ccc(OC)c(OC)c2)cc1 (stereo not shown) | 3.13
CCCCCOc1ccc(NC(=O)C(=O)NCCC2=CCCCC2)cc1 | 10.5
COc1ccccc1N1C(=O)CSC1=NC(=O)c1ccccc1 | 12.7
N#Cc1ccc(C23CC4(C2)[C@H](CN(CC2CCCCC2)[C@@H]4c2ccccc2)C3c2ccccc2)cc1 (stereo partly shown) | -3.77
S=C(Nc1ccc(Cl)cc1)Nc1ccc2cn[nH]c2c1 | 11
CN(C)CCCN(C(=O)c1ccc(Br)s1)c1nc2cc3c(cc2s1)OCO3.Cl | 4.06
CC(CNC(=O)C(=O)NC(C)CCc1ccccc1)Cc1ccccc1 (stereo not shown) | 16.9
CC(C)c1ccc(C(=O)Nc2ccc(N3CCOCC3)cc2)cc1 | 6.46
CCCC(=O)Nc1ccc(C(=O)Nc2ccc([N+](=O)[O-])cc2OC)cc1 | 13.1
Cc1cccc(OC(=O)c2cccnc2)c1C | 10.8

SMILES | hERG current change (%, negative = inhibition) at 1uM [%]
COCCSc1nnc(NC(=O)Cc2ccc(OC)c(OC)c2)s1 | 2.88
COc1cc(OC)c(OC)cc1C#N | 11.1
CC(C)CNC(=O)c1ccc(COc2ccc(Cl)cc2Cl)o1 | 4.93
Cc1[nH]c2ccccc2c1C(=O)CN1CCCCC1C (stereo not shown) | 5.39
Cc1ccc(OC(C)C(=O)N(Cc2cccs2)C2CCS(=O)(=O)C2)cc1C (stereo not shown) | 8.4
CC1(c2ccc(OC(F)F)cc2)NC(=O)N(CC(=O)Nc2ccc(N3CCCCC3)cc2)C1=O (stereo not shown) | 18
Cc1ccsc1C(=O)NNC(=O)c1csc(N2CCOCC2)n1 | 12.2
C[C@H]1C=C(C(=O)O)O[C@@H](OCc2ccc(CO)cc2)C1 | 7.29
Cc1cc(-c2csc(Nc3ccccn3)n2)ccc1F | 11.3
O=[N+]([O-])c1cccc2c(S(=O)(=O)N3CCOCC3)cccc12 | 1.16
N=c1nc(SCCC(=O)O)ss1 | 7.25
CC(C)CN(C(=O)c1ccc(C(F)(F)F)cc1)c1c(N)n(CC(C)C)c(=O)[nH]c1=O | 20.2
Cc1ccc2nc(C(F)C(F)(F)F)[nH]c2c1 (stereo not shown) | 27.2
Cc1cccc(NC(=O)N2CCc3ccccc3C2)c1C | 12.7
CCCOc1ccc(/C=N/NC(=O)CN2CCCCC2)cc1OCC | 4.6
O=C(/C=C/c1cccc([N+](=O)[O-])c1)N1CCN(Cc2ccc3c(c2)OCO3)CC1 | -20.2
COc1ccc(N(CC(=O)NCCSCc2ccc(C)cc2)S(=O)(=O)c2ccccc2)cc1 | 7.95
CCCCOc1cccc(OCCCC)c1C(=O)Nc1cc(C)on1 | 12.9
COc1ccccc1C(=O)C1CCCN(C(=O)C2=CC(=O)CC(C)(C)O2)C1 (stereo not shown) | 17.5
COCCn1c(N)c(N(Cc2ccccc2)C(=O)CSCC(=O)Nc2ccc(OC)cc2)c(=O)[nH]c1=O | 12.4
CCOC(=O)N1CCC(NC(=O)Cn2cccc2C(=O)c2ccccc2)CC1 | 10.7
CN(c1ccccc1)S(=O)(=O)c1ccc(NC(=O)c2ccccc2C(=O)O)cc1 | 13.6

SMILES | hERG current change (%, negative = inhibition) at 1uM [%]
COc1ccc(S(=O)(=O)NCCc2c[nH]c3ccc(C)cc23)cc1 | 14.2
CCn1c(SCC(N)=O)nnc1-c1ccc(S(=O)(=O)N2CCN(C)CC2)cc1 | -0.273
COc1ccc(OCC(O)Cn2ccnc2C)cc1 (stereo not shown) | 8.31
COC(=O)c1cc2sccc2n1CC(=O)Nc1ccc(OC)c(OC)c1OC | 9.49
CCCc1nc2ccc(NC(C)=O)cc2c(=O)n1Cc1ccc(Cl)cc1 | 14.3
C/C(=N\NC(=O)CCn1nnc2ccccc21)c1cccs1 | 13.3
CC(=O)c1ccc(S(=O)(=O)N2CCNCC2)cc1.Cl | 13.3
O=C(c1ccc(-c2ccc([N+](=O)[O-])cc2)o1)N1CCCCC1 | -10.5
COc1cc(/C=C2/C(=N)N3C=CSC3=NC2=O)ccc1OCCCOc1cc(C)ccc1C | 9.13
CNC(C)C(=O)NC(C(=O)N1CCCC1C(=O)NC1CCCc2ccccc21)C(C)C.O=CO (stereo not shown) | 13
O=S(=O)(NCc1csc(-c2cccnc2)n1)c1ccc2c(c1)OCCO2 | 5.24
CNC(=O)COC(=O)c1cc(-c2ccco2)nc2ccccc12 | 4.53
Cc1cc(Cl)ccc1OC(C)C(=O)NN=C1CCCCCC1 (stereo not shown) | 9.5
O=C(CCN1CCN(c2ccccc2F)CC1)Nc1ccc(F)cc1 | 14.4
Cc1ccc(NC(=O)C2C3/C=C\CCCCC32)cc1 (stereo not shown) | 15.7
CC(=O)Nc1ccc(NC(=O)CN(c2ccc(C(C)C)cc2)S(=O)(=O)c2ccccc2)cc1 | 25.3
CCOC(=O)C1C(=O)CC(C)(O)C(C(=O)OCC)C1c1ccc(NC(C)=O)cc1 (stereo not shown) | 12.5
N#C/C(=C\c1ccc[nH]1)C(=O)Nc1ccccc1Cl | 5.32
O=S(=O)(NCC1CC1)c1cccc(S(=O)(=O)N2CCCC2)c1 | 15.6
COc1ccc(CCNS(=O)(=O)CCNC(=O)c2ccc3c(c2)OCO3)cc1 | 9.14
CCCCn1c(N)c(N(CCOC)C(=O)COc2ccc(Cl)cc2)c(=O)[nH]c1=O | 19.5
NC(=O)c1ccccc1NC(=O)/C=C/c1ccccc1 | 19.7

SMILES | hERG current change (%, negative = inhibition) at 1uM [%]
COc1ccc(C2NC(=S)NC3=C2CCCC3=C2SCCS2)cc1 (stereo not shown) | 16.2
COC(=O)C1CCN(C(=O)Cc2ccc(Br)cc2)CC1 | 10.4
Cc1cc(C)nc(SCC(=O)N/N=C\C(Br)=C\c2ccccc2)n1 | 17.5
CCOc1ccc(C(=O)Nc2sc3c(c2C(=O)OC)CC(C)(C)NC3(C)C)cc1 | -0.517
O=C(O)Cc1ccc(NC(=O)c2ccc(NC(=O)C3CC3)cc2)cc1 | 0.396
Cc1cc(C)c(C(N)=O)c(SCC(=O)c2cc(C)c(C)cc2C)n1 | 10.8
Cc1c(N)c(C(C)(C)C)cc(C(C)(C)C)c1[N+](=O)[O-] | 2.67
CCC(=O)N1c2ccc(S(=O)(=O)NCc3ccco3)cc2CC1C (stereo not shown) | -5.05
COc1ccc(C(CNC(=O)c2oc3cc(C)c(C)cc3c2C)N2CCCCC2)cc1 (stereo not shown) | 17
Cc1cc(C(=O)Nc2cccc(C)c2C)n(-c2ccccc2)n1 | 10.9
C=CCSc1nc2sc3c(c2c(=O)n1-c1ccccc1)CCN(C)C3 | 7.81
Cc1ccc(-c2cc(C(=O)OCC(=O)N(C)C3CCS(=O)(=O)C3)c3ccccc3n2)c(C)c1 (stereo not shown) | -0.925
O=C(COc1ccc(Cl)cc1)NCCSCc1ccccc1Cl | 2.57
CC1Oc2ccccc2C=C1C1/C(=C(/O)c2ccccc2)C(=O)C(=O)N1CCCN(C)C (stereo not shown) | 12.7
O=C(O)CCCCCN1C(=O)/C(=C/c2ccncc2)SC1=S | 17.9
COC(=O)C(NC(=O)c1ccc(OC)cc1)(Nc1ncc(S(=O)(=O)c2ccc([N+](=O)[O-])cc2)s1)C(F)(F)F (stereo not shown) | 13
O=C(CCn1ccnc1)Nc1nc2ccccc2[nH]1 | 12.7
O=C(NCC(=O)N1CC=C(c2ccccc2)CC1)c1ccco1 | -50.9
Cc1cccc(-n2c(=O)c(C#N)cc3c(=O)n4ccccc4nc32)c1 | 2.36
Cc1ccnc(NC(=O)c2ccc(S(=O)(=O)N3CCCCC3)cc2)c1 | 6.85
Cc1cc(C)c(C(=O)CC2(O)C(=O)Nc3ccccc32)cc1C (stereo not shown) | 8.09
O=C(CN1CCN(Cc2ccc(Cl)cc2)CC1)N1CCc2ccccc21 | -32.1
